Results reported in PubChem BioAssay AID1466 (National Center for Advancing Translational Sciences (NCATS), 2008).
Among all 200,000 compounds or so, about 10 (0.005%) were called active. This list was built around the results that the source calls inconclusive (neither active nor inactive); the mix of calls is not that of the screen. The call rests on the fitted dose curve; in most records, active means well fitted inhibition curve with a large enough effect; inconclusive means small, poorly fitted or top-dose-only effect, or effect the other way, or another doubt; inactive means no such curve, though single readings can be large or run the other way. No potency is given beside an inconclusive call; the fits are too rough.

target: Lysosomal alpha-glucosidase (Homo sapiens) (UniProt P10253); assay: qHTS Assay for Inhibitors of Human alpha-Glucosidase as a Potential Chaperone Treatment of Pompe Disease; settings: purified human GAA, 4-MU-alpha-glucoside fluorescence; activity change, negative = inhibition: at 76.9 µM (top of the series) unless noted;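 on activity change, negative = inhibition: plate controls were uninhibited enzyme wells for no effect and no-enzyme background for full effect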
Method in brief: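 Endpoint fluorogenic read: 20 min room-temperature reaction of 4 nM human alpha-glucosidase with 400 uM 4-methylumbelliferyl-alpha-D-pyranoside, pH 5.0, quenched with 1M NaOH/1M glycine pH 10. AC50 from Hill modeling.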
Potency means the concentration at half of the fitted maximal effect; tags describe the fitted curve by direction and shape.

| SMILES | Potency | activity change, negative = inhibition |
| --- | --- | --- |
| CCOc1ccccc1C1C(C#N)=C(N)SC(N)=C1C#N | inactive | – |
| COCCOC(=O)c1sc(=S)n(CCOC)c1N | inconclusive [inhibitor, single point] | – |
| O=C(O)C1(P(=O)(c2ccc(Cl)cc2)c2ccc(Cl)cc2)CCCC1 | – | inconclusive: 16.2% [activator] |
| Cc1cnc(C)c(N2CCN(Cc3nc(-c4cccc(F)c4F)oc3C)CC2)n1 | – | inconclusive: 11.6% [activator] |
| CC(C)N(Cc1nc(-c2ccccc2)no1)C(=O)c1ccc(Br)o1 | inconclusive [inhibitor, full curve, poor fit] | – |
| CCc1ccc(OCC(=O)Nc2ccc(-c3cc4ccccc4oc3=O)c(OC)c2)cc1 | inconclusive [activator, single point] | – |
| Oc1ccc(O)c(-c2cnns2)c1 | inconclusive [inhibitor, full curve, poor fit] | – |
| CCN(CC)CCCNC(=O)CN1C(=O)CSc2ccc(S(=O)(=O)N3CCOCC3)cc21 | – | inconclusive: -18.2% [inhibitor] |
| Cc1cc(NCCCN2CCOCC2)n2c(nc3ccccc32)c1C#N | inconclusive [activator, partial curve] | – |
| COc1ccc(NC(=O)/C(=C/c2cccnc2)NC(=O)c2cccs2)cc1 | inconclusive [inhibitor, single point] | – |
| CCCCOc1ccc(/C=C/C(=O)OCC(=O)c2c(N)n(C)c(=O)n(C)c2=O)cc1OCC | inconclusive [activator, partial curve] | – |
| COc1ccc(N(CC(=O)Nc2ccc(F)c(Cl)c2)S(=O)(=O)c2c(C)noc2C)cc1 | inconclusive [inhibitor, single point] | – |
| O=[N+]([O-])c1ccc(O)c(/C=N/Nc2ccccn2)c1 | inconclusive [inhibitor, single point] | – |
| COc1ccc(NC(=O)c2ccc(-c3ccccc3)cc2)cc1S(=O)(=O)N1CCOCC1 | inconclusive [inhibitor, single point] | – |
| O=C(NCc1ccc(Cl)cc1)C(=O)NCC(c1cccnc1)N1CCN(c2ccc(F)cc2)CC1 (configuration not stated) | – | inconclusive: -18.9% [inhibitor] |
| COC(=O)NC1(C(F)(F)F)C(=O)NC(C)=C1C(=O)OC (configuration not stated) | inconclusive [inhibitor, full curve, poor fit] | – |
| O=C(c1cccs1)N1CCc2ccccc21 | – | inconclusive: -18.8% [inhibitor] |
| Cc1ccc(-c2cc(C(F)(F)F)c(C#N)c(SCCC#N)n2)o1 | inconclusive [activator, partial curve, poor fit] | – |
| NS(=O)(=O)c1ccc(CCNC(=O)CSc2nnc3ccccn23)cc1 | – | inconclusive: 15.5% [activator] |
| CCC(OC(=O)C1=Cc2ccccc2OC1)C(=O)NCc1ccco1 (configuration not stated) | – | inconclusive: 11.7% [activator] |
| CC1(C)Cc2ccccc2-c2nc(NCCCO)n(-c3ccccc3)c(=O)c21 | inconclusive [activator, single point] | – |
| Cc1ccc(C)c(CN2C(=O)COc3ccc(C(=O)c4ccccc4C(=O)O)cc32)c1 | inactive | – |
| CCn1cc(NC(=O)Nc2ccccc2C(=O)OC)c(C(N)=O)n1 | – | inconclusive: -16.5% [inhibitor] |

| SMILES | Potency | activity change, negative = inhibition |
| --- | --- | --- |
| COc1cc(CNCCNC(=O)c2nonc2N)ccc1OCc1ccc(Cl)cc1 | – | inconclusive: 4.39% [activator] |
| c1ccc(CSc2nnc(Cc3ccccc3)o2)cc1 | – | inconclusive: 18.4% [activator] |
| S=C(Nc1ccc2nccnc2c1)N1CCCC1 | inconclusive [inhibitor, single point] | – |
| COc1c(Cl)cnn(-c2ccccc2)c1=O | inconclusive [inhibitor, partial curve] | – |
| CCCCn1c(SCC(=O)NCc2ccco2)nc2cc(S(N)(=O)=O)ccc21 | inactive | – |
| CCCc1cc(C(=O)Nc2cc(C)nn2-c2ccccc2)no1 | inconclusive [inhibitor, partial curve] | – |
| O=C(/C=C/Nc1ccc(F)c(Cl)c1)c1ccco1 | inconclusive [inhibitor, full curve] | – |
| CCOC(=O)c1oc2ccccc2c1NC(=O)COc1ccc(F)cc1 | inconclusive [activator, partial curve] | – |
| O=S(=O)(c1ccc(F)cc1)N1CCC(N2CCCCCC2)CC1 | inconclusive [inhibitor, single point] | – |
| COc1cc(OC)c(C(=O)N2CCCC2)cc1OC | – | inconclusive: 17.7% [activator] |
| COc1ccc(Nc2nc3ccccc3n3nnnc23)cc1 | inconclusive [inhibitor, full curve, poor fit] | – |
| c1ccc2c(NCC3CCCO3)nc(N3CCCCC3)nc2c1 (configuration not stated) | inconclusive [activator, partial curve] | – |
| Cc1ccc(C(=O)N/C(=C\c2cccs2)C(=O)NCCc2c[nH]c3ccccc23)cc1 | inconclusive [inhibitor, partial curve] | – |
| O=C(C[n+]1cc(-c2ccc(Br)cc2)n2c1CCCCC2)c1ccccc1 | inconclusive [inhibitor, full curve, poor fit] | – |
| COc1ccc(S(=O)(=O)N2CCCC2C(=O)NCc2cccs2)cc1 (configuration not stated) | inconclusive [inhibitor, single point] | – |
| Cc1sc(NC(=O)c2ccco2)c(CN2CCCCC2)c1C | inconclusive [inhibitor, single point] | – |
| CN(CC(=O)Nc1ccc(S(=O)(=O)N2CCCC2)cc1)Cc1ccc(Cl)cc1Cl | inconclusive [inhibitor, single point] | – |
| CCN1CCN(c2ccc(S(=O)(=O)N3CCCC3)cn2)CC1 | inconclusive [activator, full curve, poor fit] | – |
| CN1CCN(NC(=O)c2cn(-c3ccccc3)nc2-c2ccc(OC(F)F)cc2)CC1 | – | inconclusive: -15.6% [inhibitor] |
| CCn1cc(C(=O)NCc2ccco2)c(=O)c2cc(S(=O)(=O)N3CCCCCC3)ccc21 | inconclusive [inhibitor, partial curve] | – |
| COc1cc(CN2CCN(C(=O)CC(C)C)CC2)cc(OC)c1OC | inactive | – |
| COc1cc(/C=C2/SC(=O)N(Cc3ccccc3Cl)C2=O)ccc1OCc1ccncc1 | inconclusive [inhibitor, full curve] | – |
| Cc1cc(S(=O)(=O)N2CCCC(C(=O)Nc3ccc(C(=O)O)cc3)C2)ccc1Cl (configuration not stated) | inconclusive [inhibitor, full curve] | – |

| SMILES | Potency | activity change, negative = inhibition |
| --- | --- | --- |
| CCCCCCCCCCn1cc(C(C)=O)c(=O)[nH]c1=O | inconclusive [activator, full curve, poor fit] | – |
| CCCc1cc2c(=O)c(-c3cscn3)c(C(=O)OCC)oc2cc1O | inactive | – |
| O=C(Nc1ccccc1)c1ccc(CSc2ccccn2)cc1 | inactive | – |
| CCOC(=O)C1CCN(c2ncnc3c2cnn3-c2ccc(OC)cc2)CC1 | inconclusive [inhibitor, full curve] | – |
| Cc1ccc(NC(=S)N2CCC(O)CC2)c(C)c1 | – | inconclusive: 17.1% [activator] |
| Cc1c(Cc2ccccc2)sc(/N=C/c2c(O)ccc3ccccc23)c1C(N)=O | inconclusive [activator, single point] | – |
| CCCNC(=O)c1ccccc1NC(=O)c1ccccc1SC | inconclusive [inhibitor, full curve, poor fit] | – |
| Brc1ccc(-c2cn3c(n2)SCC3)cc1 | inconclusive [activator, single point] | – |
| C=CCn1c(-c2ccccc2OC)n[nH]c1=S | inconclusive [inhibitor, single point] | – |
| COC(=O)c1ccc(C)c(NC(=O)Cc2coc3cc(OC)ccc23)c1 | – | inconclusive: -15.5% [inhibitor] |
| Cc1cccc(N2CC(C(=O)Nc3ccc(S(=O)(=O)N4CCOCC4)cc3)CC2=O)c1 (configuration not stated) | inconclusive [inhibitor, partial curve] | – |
| COc1ccc(NS(=O)(=O)c2ccc(Cl)c(C(=O)O)c2)cc1S(=O)(=O)N1CCCCC1 | inconclusive [inhibitor, single point] | – |
| Cc1cc(C(F)(F)F)nn1CC(=O)NNC(=S)NCC(C)C | inconclusive [inhibitor, partial curve] | – |
| Cc1ccc(NC(=O)CSc2nc(N)c3c4c(sc3n2)CSC(C)(C)C4)cc1 | inconclusive [inhibitor, single point] | – |
| Cc1nc(NCCN)c(C#N)c2c1COC(C)(C)C2 | – | inconclusive: -16.1% [inhibitor] |
| CCCOC(=O)CC1C(=O)NCCN1Cc1cc(OC)cc(OC)c1 (configuration not stated) | – | inconclusive: 15% [activator] |
| COc1cccc(NC(=O)C(C)SCc2ccccc2)c1 (configuration not stated) | – | inconclusive: 9.92% [activator] |
| CCOC(=O)C1CCN(Cc2cnc(Oc3ccc(C(C)(C)C)cc3)s2)CC1 | inconclusive [inhibitor, single point] | – |
| O=C(CN1CCN(Cc2ccc(F)cc2Cl)C1=O)NCCc1ccc(Cl)cc1 | inconclusive [inhibitor, single point] | – |
| CCS(=O)(=O)N1CCC(C(=O)NCCN2CCN(Cc3ccccc3)CC2)CC1 | – | inconclusive: 22.1% [activator] |
| CCOC(=O)/C(C#N)=C\c1cccnc1 | – | inconclusive: 4.06% [activator] |
